The labels stand for the following.
T1: UNK ZnF1-3 (human, UniProt Q9C0B0 31-174)
T1 sequence: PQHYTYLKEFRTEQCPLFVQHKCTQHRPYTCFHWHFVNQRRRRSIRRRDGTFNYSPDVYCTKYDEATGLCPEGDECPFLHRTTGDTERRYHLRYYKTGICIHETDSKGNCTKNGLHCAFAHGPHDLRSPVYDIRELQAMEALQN

B1: chr9:53370893:53370894:+_ENSMUSG00000033054_ENSMUST00000035850|mus_hu|FALSE|FALSE (ssRNA)
RNA: GGGAGUUCUACAGUCCGACGAUCUGCUGAAUCAUUAGAUGGUUGUUUAGUAGAAGACAGCGAAUCUCCAAGAUGAAUUUCUACUUGUCCAGAUACAUUUAAAUGUGAACUUUCAACAGACACAGGUAGUAUUUCACUUUGAAGCAACAGAGGAUUGAGCAUCA
B2: chrX:34632047:34632048:-_ENSMUSG00000036572_ENSMUST00000076265|mus_hu|motif|central (ssRNA)
RNA: GGGAGUUCUACAGUCCGACGAUCUAACUAUUUAAAUUUUUGUAUCAACGAAAGUGUGUUCUAUCCUUCACUGUACCUGUACGGCAAGGACAUGCUUGUUGCUUCUACACUACCCAAUGUCAACACUUAUCAUCAACAAUACAACAACAGAGGAUUGAGCAUCA
B3: chrX:77160730:77160731:+_ENSG00000131174_ENST00000481445|hu_mus|FALSE|FALSE (ssRNA)
RNA: GGGAGUUCUACAGUCCGACGAUCCUACUGAUCUCUCCAUUCCUUUGGGGUGACUCUGCCAACAGGGGACAUGUUCCAUUCUAUUCCAAUUUGUGUGGCUGUAUAUGUCCAUGUAGAAACACAGAAGAUGGCUCCACCUGCUAACAACAGAGGAUUGAGCAUCA
B4: chr4:142145789:142145790:+_ENSG00000109445_ENST00000262990|hu_mus|motif|central (ssRNA)
RNA: GGGAGUUCUACAGUCCGACGAUCACACUGUGCACAAAUUGGUAACUUCUGAACAGAAUUACAAAAAUAGCAAAAUGCUCGGUUCUUCUGCCGCCUCUGACAUUUGUCGCAUUCCAUUGAAGCAUUGCAUGGGUGUUUGGCUAGCAACAGAGGAUUGAGCAUCA
B5: 71532538_71534999_805_CDS_ENSG00000132485_ENST00000254821|human|control|control (ssRNA)
RNA: GGGAGUUCUACAGUCCGACGAUCCCUCUCAGGAGAAGAUGAUGAACUUGAAUAAGAUCUUUUUCGUGGGGAAGAAGAGCCCCUGUGGGACCUGGAGCUGGAUCUUGAUUUCGACCCACGAGAUCUCGAACGUUCUCUGGAACUCAACAGAGGAUUGAGCAUCA
B6: chr6:71460543:71460544:+_ENSMUSG00000052656_ENSMUST00000064637|mus_mus|FALSE|FALSE (ssRNA)
RNA: GGGAGUUCUACAGUCCGACGAUCCAACCAAAUAAAUUCUGUCAUCAACAUCAGCAUAAUGUGUAUUUCCUGUCACUGCACUAACAUUAAACUAAACUUCAAACCACAAAAACAUUGUGACUAACAUUAAAAAGGCAAGCUGUACAACAGAGGAUUGAGCAUCA
B7: chr22:19452774:19452775:-_ENSG00000070010_ENST00000399523|hu_hu|hu_hu_hu_mus_False|18_108 (ssRNA)
RNA: GGGAGUUCUACAGUCCGACGAUCCUUUUCAUUAUAGUUGAUAGCAAUCACAUCUCCAGUCGUCAGACAGGCGAAGUUUCUCAAUGCAUUUUCUAAUACCGCUUUAGGGUUGGUAAUGUCCAGGAAGUCUGGGCUCUGAGGCUGCAACAGAGGAUUGAGCAUCA
B8: chr1:220312391:220312392:+_ENSG00000067704_ENST00000302637|hu_mus|FALSE|FALSE (ssRNA)
RNA: GGGAGUUCUACAGUCCGACGAUCAUCUGUCUCGGGGUUAAAACCGGUCAAAUUUCCCAAGAGAAAGCGGAGUGUGUUUCUGAGCUUGCUGAUGUCAUCUCUGGCAGCAGAGAGUACAGAGGGGCCAAUGGUCACCUCCGUGAACAACAGAGGAUUGAGCAUCA
B9: 72348259_72351899_1274_CDS_ENSG00000157107_ENST00000430046|human|control|control (ssRNA)
RNA: GGGAGUUCUACAGUCCGACGAUCCUCCUCAUUAGACAAAUUCCGAUUCAUCUGUACUGGACUGUGUCUAGAUAUUGCUGGGGAGAGUGUUAUAUUCCCUAUAGAUACUUUUAAUUCAUCCAAAGAAGCCAUUGUGUGAUGUGACAACAGAGGAUUGAGCAUCA
B10: chr7:134027783:134027784:-_ENSMUSG00000059981_ENSMUST00000071268|mus_mus|motif|central (ssRNA)
RNA: GGGAGUUCUACAGUCCGACGAUCGGAUGAACCCCGGAUAUUGGUGCACACAGGGUCCUGAAUCCCAGGUAUUUUAAAUUCGGUAAAACAGAGACCCAGGUUUGUAAAGGUUGGGACUUUGGGUCCCAGAUAUCUGAUAUACGACAACAGAGGAUUGAGCAUCA
B11: 197144207_197145775_1926_CDS_ENSG00000177888_ENST00000367405|human|control|control (ssRNA)
RNA: GGGAGUUCUACAGUCCGACGAUCACAUUUUCCACAUUCUUCACACUGAUGAGCUUUUUCACCUGAAUGUAUUUUUUUGUGCUUUGUAAGGUGAUCAUGACGGAUAAAUGUUUUUCCACAUUCAUCGCACUCAUAUCUUUUAUCCAACAGAGGAUUGAGCAUCA
B12: chr2:178407766:178407767:+_ENSG00000018510_ENST00000264167|hu_hu|motif|central (ssRNA)
RNA: GGGAGUUCUACAGUCCGACGAUCAUUGACUGAUUCGAUGUGUAUCAGAGUACAGGUCCACCAUACAAUUAGUUAAAUAUACGGGAACAGAUUAUCCAAAACAACACUGUGGAAAGAAUUACCAGUGUUUCCACAUAUAACUGCCAACAGAGGAUUGAGCAUCA
B13: chr1:133829981:133829982:+_ENSMUSG00000026434_ENSMUST00000062264|mus_mus|FALSE|FALSE (ssRNA)
RNA: GGGAGUUCUACAGUCCGACGAUCGAACUGUAAUUAGAAAAUAUACCUUCAAUCUAAUGAGUUAGUUUUAAAAGGAAUUCUAAACAAGUCCAAUCAGACACACCUUUUACACAAGUAACGUAGAAGAUAGUAUUAUUUCUCAAUCAACAGAGGAUUGAGCAUCA
B14: chr12:39756943:39756944:-_ENSG00000139116_ENST00000544797|hu_mus|hu_hu_hu_mus_False|48_88 (ssRNA)
RNA: GGGAGUUCUACAGUCCGACGAUCGGUUUGGCUGUUACCCCCAAGGGAAUCCUGUAGGAGUCUUGUCAGCUUAGAGUCUCUGUAAGGGACAUGUGUGGCUCUCUUGCUCUUGUCCCCCAAGGCGCUGAUUACAUUCCCAAGAGCCAACAGAGGAUUGAGCAUCA

The other results are listed elsewhere or left out.

This experiment has as its target T1, UNK ZnF1-3. As to the kind of experiment: nsRBNS (natural sequence RNA bind-n-seq); RBNS binding buffer (assumed for nsRBNS): 25 mM Tris pH 7.5, 150 mM KCl, 3 mM MgCl2, 0.01% Triton X-100, 500 ug/ml BSA, 20 U/ml SUPERase-In, 4 C; UNK is unkempt and MSI1 is Musashi-1; names of the RNAs are library labels; protein concentration not given here; high values mean tight binding.
Consider B1, for which the binding signal was 0.526 enrichment R.

Regarding B2, the binding signal worked out at 0.732 enrichment R.

B3 displayed a binding signal of 1.04 enrichment R.

In the case of B4, the binding signal is 1.05 enrichment R.

In the case of B5, the binding signal was 0.818 enrichment R.

In the case of B6, the binding signal amounted to 1.27 enrichment R.

B7: the binding signal is 0.725 enrichment R.

Consider B8, for which the binding signal was found to be 0.843 enrichment R.

The molecule B9 returned a binding signal of 0.904 enrichment R.

Regarding B10, the binding signal was found to be 0.904 enrichment R.

Take B11: the binding signal is 0.335 enrichment R.

As to B12, the binding signal turned out to be 1.36 enrichment R.

Regarding B13, the binding signal came to 1.47 enrichment R.

For B14, the binding signal was found to be 0.775 enrichment R.
